# Laboratory results published in the supplement of paper PMC11417369.
# ± gives the standard deviation of the averaged measurements. The list shows a part of the results.
# Test system: PfAP2-I AP2 domain 3 (GST-tagged)
# Assay: gcPBM binding intensity (ln(normalized median fluorescence intensity)); higher = stronger DNA binding
# Method in brief: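 An Agilent 4 × 180k array carrying primer-extended double-stranded 36-bp intergenic genomic probes and negative controls received GST-tagged P. falciparum DNA-binding domains expressed in E. coli, about 25 μg on average, for 1 h. The binding buffer contained 1× PBS, 1% milk, 0.2 mg/ml BSA, 0.5% salmon testes DNA and 0.03% Triton X-100. Binding intensity is the top Masliner-normalised natural-log median intensity across replicate spots of either probe orientation, read after Alexa488 anti-GST antibody staining and a 488 nm scan.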
row,Sequence,gcPBM binding intensity (ln)
1,TTTTTTTTTTTTTTTTTTTTTTTGCTCAGTGTGGTA [CACACA_negctrl_site29],8.16 ± 0.62
2,TTGATGGGAAAAAACTTTTTTTTCTTTTTTTCTTTC [CACACA_negctrl_site328],7.23 ± 0.76
3,TATCACCCACCATGAAGTACATATTACCATTTGATG [XGTACX_site845],7.95 ± 0.52
4,ATAAATAAATAAAAGCGTACATATATATAAAATATA [XGTACX_site8107],7.93 ± 0.16
5,AAAAGGAAGATATATACACACATACAAATATTTATA [CACACA_site7093],7.68 ± 0.52
6,TTATACTAAATGAACACACACACATATATATATATA [CACACA_site99],9.49 ± 0.53
7,AGAGTTAAACGATATATATAAATATATATATATATA [GTGCAC_negctrl_site316],9.17 ± 0.4
8,AAAAAAAAAAACGACAGTACAATTATAATTTATATT [XGTACX_site2365],7.59 ± 0.75
9,ATGTCTTAAAAATTAAAACACACGTTCACTTTCATA [CACACA_site3385],7.92 ± 0.59
10,AGATCATAATATTATACACACATTAGATATAGGTAA [CACACA_site6809],7.75 ± 0.55
11,TATATAATACGAATTTGTACATATTAAATAAATTAT [XGTACX_site93],7.56 ± 0.41
12,GTTAGTTTTAGTTCATGTACATAATAGAAAATATAT [XGTACX_site7125],8.15 ± 0.3
13,AAGGTATGATTAATCACACACATAAATATAAATACA [CACACA_site5464],7.61 ± 0.71
14,AAGCTTCATTAATATACACACATATATGTGTATATT [CACACA_site7693],7.54 ± 0.54
15,ATAAAATATAGGTATGCACACACATATACTTCTGTG [CACACA_site8398],8.06 ± 0.61
16,AATAAAGAAGAAGAAAGTACACATTTCACAAAGGGG [XGTACX_site1308],8.23 ± 0.21
17,GATATATGTATAATAACGCACACTACAAAAATAAAA [CACACA_site2100],10.2 ± 0.61
18,TTTTTTATGAGGTGGTGTACTTTTTTTTTTTTCTTT [XGTACX_site8550],8.23 ± 0.2
19,TGGTAATACCCATACACACACACATACCCATATATA [CACACA_site5509],8.1 ± 0.24
20,ATAAATAAAACAACAGTGCAATAAAATTAGTTGAGG,10.9 ± 0.25
21,ATTAAAGAGAGACATCAACACACATACGTATGTATA [CACACA_site8393],7.52 ± 0.38
22,CAAGAAACAGTGATACGTACACATATATATATATAT [XGTACX_site3229],9.35 ± 0.2
23,TAATATATTATAAACACATGCACATTAATAATAACT [TGCATGCA_site708],8.08 ± 0.58

row,Sequence,gcPBM binding intensity (ln)
1,TATATATATATATATGTGCACATTTTATTAAAATGT,9.87 ± 0.15
2,ATAGACATTTTACTTTGTACATATAAACATATATAT [XGTACX_site2733],7.97 ± 0.64
3,ATATGAAACATGAAGGTGCATAATGTGTATATTTAT,11.3 ± 0.69
4,ACATAAATATATTTTTCACACATCATTAGTTATGAA [CACACA_site4724],7.93 ± 0.45
5,TATTTTTTAAAAAAACGTACAAACATAATAAAAATA [XGTACX_site1857],8.24 ± 0.28
6,ATTTTCAAATTATCAGATGAATCTTTTTAAGATCTT [XGTACX_negctrl_site598],7.05 ± 0.73
7,AAACTATACCAAAACACACATACAAAATATAAAAAA [CACACA_site2707],7.83 ± 0.39
8,TTTTTTTTTTTTTTTTTACACACTGCATACAAGAAA [CACACA_site3026],8.47 ± 0.52
9,GTCTGCATATGGATACGTACACATATATATTAATGT [XGTACX_site2260],8.29 ± 0.38
10,GGGAAAAAATGAGGTCGTACATTTTTCATCACAAAT [XGTACX_site8920],7.93 ± 0.47
11,CTCATATATAACACATGTACACAGATTTTGCAAATG [XGTACX_site6879],8.27 ± 0.27
12,AATGAATGTACATACGCATGTACTTGACTAAATTAT [TGCATGCA_site436],7.83 ± 0.55
13,ATGTTATATTTTTTTATACACACTGGAATATATAAA [CACACA_site215],7.95 ± 0.54
14,ATTTATAATGAGTATACACACATATATAGATTTGCT [CACACA_site4517],7.63 ± 0.49
15,ATTATTATTGTCAAATGTACAAGCTAATAATTTTTA [XGTACX_site7167],7.54 ± 0.41
16,TATATATATATATATTGTACTTTATTTTATATATTC [XGTACX_site5697],9.24 ± 1
17,AAAAAAAAAAAAAACATACACACAAGAACAAAATAT [CACACA_site3003],8.05 ± 0.56
18,CAACAACATTTTTCATGTACATATATTTTATAATAT [XGTACX_site519],7.83 ± 0.39
19,TAAAAAATAAAATACACACACATATTTATATTTATA [CACACA_site6737],7.41 ± 0.4
20,AAACATTTAAATGGAAACACAGAAAAATGAAAAATG [CACACA_negctrl_site457],8.05 ± 0.65
21,TTTTTTTTTTGTAATACACACCACTATATGTTATTT [CACACA_site5087],8.24 ± 0.65
22,ATATATATATATACATGTACATATATACATTATATT [XGTACX_site936],9.11 ± 0.42
23,ATATATATATATATATGTACATATTTTTTATTTTAT [XGTACX_site5761],9.36 ± 0.42

row,Sequence,gcPBM binding intensity (ln)
1,ATATGTTACTTTACATAAAGAAGAAGAAGAAGAAAA [CACACA_negctrl_site985],7.47 ± 0.53
2,TATTATTCAAATAAAAGAAAAATATATATATTATAT [GTGCAC_negctrl_site273],7.63 ± 0.42
3,TCCCCCTTTTTTTGATTTTTATCTTAATTCTAAAAG [GTGCAC_negctrl_site541],7.85 ± 0.38
4,TTTCAAAAAGGAAGAAAAAAAAAAAAAAAAAATATA [XGTACX_negctrl_site514],7.34 ± 0.52
5,TTTTTTCTTTTCAAGGTGCTTTATAAGAAAAAGGGA [GTGCAC_site9858],11.1 ± 0.89
6,AAAAAAAAAAAAAACACACACACACCCAAATACATA [CACACA_site708],8.48 ± 0.54
7,AGTATTATATTTTCTTGTACACATGTAAAATACCTC [XGTACX_site1359],8.28 ± 0.35
8,TATTTTATCATTTGCACACGCACACCCACATAAAAA [CACACA_site354],9.68 ± 0.15
9,TATATTAAAACAAGCACACAATCGCATAATATCCTT [CACACA_site3210],7.76 ± 0.65
10,AAAAAAAAAAAAAAAACACACATATATGTATATATA [CACACA_site3276],8.65 ± 0.41
11,CAATTACGCAGGAATGCACACAATAATAAAAAAAAT [CACACA_site3513],8.99 ± 0.19
12,CTATTTCAGAAACACACACACACAAACAAACATATA [CACACA_site978],8.04 ± 0.21
13,TTAGAGAAACAAAATTGTACATTATAAATTTGCCTT [XGTACX_site440],7.49 ± 0.53
14,CAAGAAATTTACAAACGTACATATGTTCATACAAGG [XGTACX_site2372],7.77 ± 0.73
15,TATTTGAAAGCCAATTGTACTTTAGTTTTTGAAACA [XGTACX_site5542],7.53 ± 0.32
16,TTAAATATAATATTATGTACTAAATATTTTTTTATT [XGTACX_site6121],7.54 ± 0.38
17,TTTCTTTTTAAATAGGTGCATATTTTTATAAATATA,9.95 ± 0.42
18,ATATATTTACATATTACACACAATATTGTACACATA [CACACA_site6564],8.24 ± 0.47
19,TTTATATATATTCTCACACACTTTTTATTTTAACAA [CACACA_site4534],7.87 ± 0.55
20,AAAAATATTTATAACACACACATAATATTTATATAT [CACACA_site7238],7.83 ± 0.59
21,ATAAATTTCCTCGTTTTTTTTTTTTTTTTTTTTTTT [CACACA_negctrl_site1173],9.78 ± 0.028
22,TAAGGATGAATCCTTTGTACATATATATATATATAT [XGTACX_site1242],9.26 ± 0.4
23,GTTATACATTTTGATTGTACATAAACCATTTGAGCA [XGTACX_site7283],7.92 ± 0.35

row,Sequence,gcPBM binding intensity (ln)
1,TGAAAAGAAAACACATGTACAAATATATAAATATAA [XGTACX_site6098],7.59 ± 0.67
2,TTTTTTTAAATATACACACACATTTATACATATATA [CACACA_site3400],7.97 ± 0.5
3,TATAAACATATCATATGTACATATATTTTTATAAAA [XGTACX_site8882],7.58 ± 0.19
4,ATATATTTTTGTAGTGTGCACGTTTATATGGTGAAA,10.7 ± 0.32
5,TTTAACGTTGAATATACACACATATATATATATATA [CACACA_site3698],9.22 ± 0.31
6,AAGAAAAAATAAAAAATAAAAATAAAAAATAAAAAA [TGCATGCA_negctrl_site274],7.32 ± 0.77
7,AAAAAATATTAATATAGTACTTTATATTTATAAGTA [XGTACX_site6895],7.53 ± 0.27
8,GGAAAAAATATATGCACACCCCCCAAAAAAAAAAAA [CACACA_site2222],10.6 ± 0.2
9,TTTTTGTTATTTTTAGTGCACATTTAAGGGTGTATT,11.4 ± 0.53
10,GAAGGAAAAACAGAATGTACATAAATAAACGTATAT [XGTACX_site753],8.31 ± 0.35
11,ACAAAATTTACAAAATGTACAAAATTTACAAAATGT [XGTACX_site6464],7.5 ± 0.61
12,TATATCTTACTTTTTGCACACACTAATATTATTGTT [CACACA_site1640],9.45 ± 0.32
13,AATACGGCAAACATTAAAAAATATAATAACAATAAA [CACACA_negctrl_site868],7.75 ± 0.55
14,ATCTGTCGACAGGACAGTACACAGTAGCCAGGAAAT [XGTACX_site1994],8.09 ± 0.93
15,TATATATATATATATATATATATGTATGTGCATTTA [TGCATGCA_negctrl_site53],9.42 ± 0.41
16,ATATAAAAATGTAAGGGTACATAATAAATAATCAAA [XGTACX_site5217],7.92 ± 0.34
17,ATTTAGAAAAATAAAACACACATATATATGTAAATA [CACACA_site4113],7.58 ± 0.59
18,ATGGACTTTTATAGTTGTACATACTATGAGAACTTT [XGTACX_site2800],8.12 ± 0.23
19,TAAAATAAATTGTGCACACATATTTATAAATATGAA [CACACA_site2331],11.3 ± 0.35
20,TACATATAAAAGTACACACACACACCCATATATATA [CACACA_site941],8.34 ± 0.61
21,GTTTATCACAGCCACGCACACATAATATATGTATAT [CACACA_site3669],8.16 ± 0.5
